# In publication PMC4336329 (PLoS ONE, 2015):
# Hit rate of the full screen: of about 310,000 compounds, about 2,200 (0.71%) showed an effect of 50% or more. Effects have a minus sign here. Some of the results follow.
# Biological target: human ether-à-go-go-related gene (hERG) potassium channel (human, UniProt Q12809)
# Assay: primary screen, population patch clamp on CHO cells stably expressing hERG
# Chain of human ether-à-go-go-related gene (hERG) potassium channel (Q12809 whole entry, looked up): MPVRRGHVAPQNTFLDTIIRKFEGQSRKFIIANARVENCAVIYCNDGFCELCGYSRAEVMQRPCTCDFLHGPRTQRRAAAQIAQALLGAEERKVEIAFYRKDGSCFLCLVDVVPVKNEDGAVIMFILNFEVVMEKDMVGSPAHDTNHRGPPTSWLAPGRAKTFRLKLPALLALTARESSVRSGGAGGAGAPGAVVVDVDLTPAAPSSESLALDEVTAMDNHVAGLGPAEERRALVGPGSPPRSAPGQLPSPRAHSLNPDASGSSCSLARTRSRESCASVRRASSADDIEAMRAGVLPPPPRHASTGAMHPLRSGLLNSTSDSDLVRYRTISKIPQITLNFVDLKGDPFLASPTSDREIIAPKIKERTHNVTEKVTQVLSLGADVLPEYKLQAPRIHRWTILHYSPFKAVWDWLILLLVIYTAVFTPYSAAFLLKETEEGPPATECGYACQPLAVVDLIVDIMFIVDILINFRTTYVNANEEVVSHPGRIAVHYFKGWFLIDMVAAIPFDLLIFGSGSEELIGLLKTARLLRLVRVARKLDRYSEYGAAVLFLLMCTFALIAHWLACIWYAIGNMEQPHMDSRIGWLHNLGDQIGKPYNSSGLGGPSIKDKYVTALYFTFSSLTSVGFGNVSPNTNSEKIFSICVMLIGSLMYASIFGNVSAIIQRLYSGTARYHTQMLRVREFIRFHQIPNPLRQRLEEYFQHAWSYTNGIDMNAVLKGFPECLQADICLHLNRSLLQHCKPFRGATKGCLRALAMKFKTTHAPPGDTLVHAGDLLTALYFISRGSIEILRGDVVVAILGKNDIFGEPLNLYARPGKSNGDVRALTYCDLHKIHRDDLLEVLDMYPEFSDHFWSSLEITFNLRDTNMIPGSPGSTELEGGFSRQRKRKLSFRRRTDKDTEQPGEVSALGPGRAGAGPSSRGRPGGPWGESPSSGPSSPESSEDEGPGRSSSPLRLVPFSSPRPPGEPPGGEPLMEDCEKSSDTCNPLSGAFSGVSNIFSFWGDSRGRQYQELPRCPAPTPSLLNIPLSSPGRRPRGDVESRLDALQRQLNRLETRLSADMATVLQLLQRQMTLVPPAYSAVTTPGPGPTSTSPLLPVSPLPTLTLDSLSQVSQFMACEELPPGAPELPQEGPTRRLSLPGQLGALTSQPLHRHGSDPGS
row,SMILES,"hERG current change (%, negative = inhibition) at 1uM"
1,CCCc1nc2oc3c(OCC)ncnc3c2c2c1COC(C)(C)C2,-3.2%
2,CCn1cc(CCCC(=O)NCc2ccccc2OC)c2ccccc21,13.6%
3,CCOc1ccc(N2CC(NC(=O)c3cccc4ccccc34)CC2=O)cc1 (stereo not drawn),8.27%
4,O=C(N/N=C/c1cc(Cl)cc([N+](=O)[O-])c1O)c1ccccc1NS(=O)(=O)c1cccs1,10.9%
5,COC(=O)c1cccn(CC(=O)c2ccc(Cl)cc2)c1=O,8.52%
6,O=C(c1cccc(S(=O)(=O)N2CCc3ccccc32)c1)N1CCCC(C(F)(F)F)C1 (stereo not drawn),-3.12%
7,COC(=O)c1sccc1NC(=O)c1cc(-c2ccc(C)cc2)nc2ccccc12,19.9%
8,O=C(O)C1CCCCC1C(=O)NCCc1ccccc1 (stereo not drawn),8.23%
9,CN(C(=O)c1ccc(NC(=O)Cc2ccc(NC(=O)C3CCN(C(=O)CCc4ccccc4)CC3)cc2)cc1)C1CC1,10.6%
10,COc1ccc2c(C(=O)c3ccc(C)cc3)n(CCC(N)=O)[n+]([O-])c2c1,3.3%
11,CC(=O)Oc1ccccc1N1C(=O)c2ccc(C(=O)O)cc2C1=O,12.5%
12,CCOC(=O)Cn1c(=O)c2c(nc(Br)n2Cc2ccc(Cl)cc2)n(C)c1=O,-13.7%
13,CC(C)CC(=O)c1c[nH]c(C(=O)NCCCN2CCOCC2)c1,12.3%
14,O=C(C[n+]1cccc(NC(=O)c2ccccc2)c1)c1ccccc1.[Br-],-0.864%
15,COc1cccc(NC(=O)C(=O)N/N=C/c2cc(C)n(-c3ccc(Cl)c(Cl)c3)c2C)c1,9.02%
16,Cc1cccc(C)c1NC(=O)C(c1ccccc1)N1CC(=O)Nc2ccccc21 (stereo not drawn),10.8%
17,CC(C)(C)c1ccc(OC2=CS(=O)(=O)c3ccccc32)cc1,8.13%
18,Cc1c(NC(=O)CSc2nnnn2Cc2ccccc2)c(=O)n(-c2ccccc2)n1C,-2.14%
19,Cc1ccc(CSCC(=O)N2CCN(Cc3ccc4c(c3)OCO4)CC2)cc1,-1.45%
20,N#Cc1c(-c2ccc(F)cc2)noc1N,9.55%
21,O=c1onc(-c2c(F)cccc2F)n1-c1ccccc1Cl,15.9%
22,O=C(CN1C(=O)NC2(CCCCC2)C1=O)Oc1ccc2ccc(=O)oc2c1,6.73%

row,SMILES,"hERG current change (%, negative = inhibition) at 1uM"
1,Cc1ccc(C(C)NC(=S)NCc2ccc(F)cc2)cc1C (stereo not drawn),3.82%
2,CCOC(=O)c1c(C)n(C)c2ccc(OCC(O)Cn3c(C)nc4ccccc43)cc12 (stereo not drawn),-0.275%
3,Cc1ccc(-c2cc3nc(-c4ccccc4)cc(N)n3n2)cc1,13.1%
4,CC(=O)Nc1c(C)nn(-c2ccc([N+](=O)[O-])cc2)c1C,15.8%
5,CCOc1ccc(NC(=O)C(C)SC(N)=O)cc1 (stereo not drawn),8.65%
6,O=C(O)CCCCCNC(=O)c1ccccc1,11.9%
7,N#C/C(=C(\O)C(F)(F)F)c1nnc2n1CCCCC2,6.54%
8,Cc1ccc(Cn2c(C)c3cnn(CC(=O)NC4CCCC4)c(=O)c3c2C)cc1,14.8%
9,O=C(NC1CCN(C(=S)Nc2ccc(F)cc2)CC1)C1CCCCC1,12.7%
10,Cc1ccc2nc(-c3ccccn3)c(NC3CCCC3)n2c1,4.72%
11,N#CC(c1ccc(O)cc1)c1ncc(C(F)(F)F)cc1Cl (stereo not drawn),10.4%
12,CCOc1ccccc1C(=O)OCC(=O)Nc1ncc(C(F)(F)F)cc1Cl,6.74%
13,CCNC(=O)N1CCCC(C(=O)c2ccc(-c3ccccc3)cc2)C1 (stereo not drawn),15.3%
14,COC(=O)/C=C(\C)NC(=O)c1ccc(F)cc1,13.7%
15,O=C(CN1C(=O)C2CCCCC2C1=O)Nc1nc2ccc(F)cc2s1 (stereo not drawn),-12.1%
16,Cc1ccccc1-n1c(SCc2cc(=O)n3ccccc3n2)nc2[nH]ncc2c1=O,-9.75%
17,O=C(COc1ccccc1)NN1C(=O)CSC1=S,12.9%
18,COc1cc(OC)cc(C(=O)Nc2nc3ccccc3[nH]2)c1,13.4%
19,CCc1nn(CC(=O)N2CC(C)CC(C)C2)c(=O)c2cccn12 (stereo not drawn),16.3%
20,COC(=O)c1cn(C(=O)c2cccs2)c2ccccc12,-3.75%
21,C=CCn1c(SCC(=O)N2CCN(c3ccccc3)CC2)nc2c([nH]c3ccccc32)c1=O,14.1%
22,CCOC(=O)C1CCCN(c2c(NCCC(C)C)c(=O)c2=O)C1 (stereo not drawn),-5.87%

row,SMILES,"hERG current change (%, negative = inhibition) at 1uM"
1,CCOC(=O)N1CCc2[nH]c3ccc(C)cc3c2C1,7.25%
2,Cc1nc([N+](=O)[O-])cn1CC(O)c1ccc(F)cc1 (stereo not drawn),11.1%
3,C=CCNC(=O)C(C#N)c1nc2ccccc2nc1N1CCCCCC1 (stereo not drawn),9.74%
4,CC1CCCN(C(=O)C23CCC(C)(C(=O)C2)C3(C)C)C1 (stereo not drawn),-5.38%
5,Cc1cc(C)n(CCN(C)c2nc3nonc3nc2N2CCCCC2)n1,18.2%
6,COC(=O)c1sc(NC(=S)NC(=O)c2ccccc2F)nc1C,2.7%
7,COc1ccc(N2C(=O)CCC(C(=O)Nc3cccc(C)n3)C2c2ccc(OC)c(OC)c2)cc1 (stereo not drawn),4.99%
8,COc1ccc(-c2c3c(=O)n(C)c(=O)n(C)c3cn2-c2cc(OC)ccc2OC)cc1,-0.058%
9,NC(=O)c1ccsc1NC(=O)CCS(=O)(=O)c1ccc(F)cc1,9.5%
10,O=C(c1nc[nH]c1C(=O)N1CCN(c2ccccc2)CC1)N1CCN(c2ccccc2)CC1,12.8%
11,COc1ccc(N(C(=O)c2snc(C(N)=O)c2N)C(C(=O)NC2CCCC2)c2ccc3ncccc3c2)cc1 (stereo not drawn),5.95%
12,O=C(Oc1ccc(-c2cnc3ccccc3n2)cc1)c1ccc(Cl)c([N+](=O)[O-])c1,12%
13,CCN(c1ccccc1)S(=O)(=O)c1ccc(NC(=S)NC(=O)c2ccc(Br)o2)cc1,2.46%
14,Cc1cc(C)cc(-n2cc[nH]c2=S)c1,3.19%
15,Clc1cc(Br)ccc1NCc1cccnc1,9.44%
16,CCN1C(=O)c2cccc3c(S(=O)(=O)NCCc4c[nH]c5ccccc45)ccc1c23,-2.7%
17,O=C(CCCN1C(=O)C2CC=CCC2C1=O)Nc1ccccc1F (stereo not drawn),-0.904%
18,COc1ccc(S(=O)(=O)NCCC(=O)NC(C)c2ccccc2)cc1 (stereo not drawn),1.22%
19,N#CNC(=Nc1cccc(F)c1)SCc1ccccc1,11.1%
20,CC1CN(C(NC(=O)C(C)(C)C)C(Cl)(Cl)Cl)CC(C)O1 (stereo not drawn),-4.08%
21,S=c1cnc2ccccc2[nH]1,12.6%
22,COc1ccc(CN(C)C(=O)c2sccc2-c2ccccc2)c(OC)c1,12.3%

row,SMILES,"hERG current change (%, negative = inhibition) at 1uM"
1,CC1CCCCC1NC(=O)CN(C)S(=O)(=O)c1ccc2c(c1)CCC(=O)N2 (stereo not drawn),15.2%
2,CCOC(=O)c1cc(-c2ccccc2)sc1NC(=O)CSc1nncs1,6.16%
3,FC(F)Oc1ccc(NC(=S)NC23CC4CC(CC(C4)C2)C3)cc1,10.6%
4,C=CCN(c1cccc(C(F)(F)F)c1)S(=O)(=O)c1cccc(C(=O)OCC(=O)NC)c1,2.89%
5,COc1cccc(-n2c(CN3CCN(c4ccccc4)CC3)nc3ccc([N+](=O)[O-])cc3c2=O)c1,9.3%
6,Cc1cccnc1-n1c(CN2C(=O)c3ccccc3C2=O)nc2ccccc2c1=O,6.82%
7,NC(=O)c1ccccc1NC(=O)CCN1C(=O)c2ccccc2C1=O,8.94%
8,CCc1nnc(NC(=O)CSc2nc3cccnc3n2Cc2ccccc2)s1,11.2%
9,O=C(CSc1nccn1Cc1ccco1)Nc1ccc(F)cc1,12.2%
10,Cc1ccc(SCCNC(=O)c2ccc(C)c(S(=O)(=O)Nc3ccccc3C)c2)cc1,-0.142%
11,Cc1ccccc1C(=O)NCCNC(=O)c1ccco1,11.5%
12,CCCN1CCN(c2ccc([N+](=O)[O-])cc2C#N)CC1,-57.8%
13,CCCCNC(=O)[C@H]1C[C@H]1[C@@H](O)[C@H](CO)NC(=O)[C@H](CC(C)C)NC(=O)OC(C)(C)C,10.5%
14,Cc1ccc(OCCC(=O)OCC(=O)Nc2cc(S(=O)(=O)N(C)C)ccc2C)cc1,12.1%
15,CC(/C=N/n1c(-c2cccnc2)n[nH]c1=S)=C\c1ccco1,9.91%
16,CC1CC(C)(C)N(C(=O)CSc2ccc(-c3ccc(F)cc3)nn2)c2ccccc21 (stereo not drawn),1.38%
17,COc1ccc(CNC(=O)CN(CCC(C)C)S(=O)(=O)c2ccc3c(c2)OCCO3)cc1,7.23%
18,COC(=O)Cc1n[nH]c(=S)[nH]c1=O,17.5%
19,CCN(CC)CCNc1nc(-c2ccco2)c2c(c1C#N)CC(C)(C)OC2,-39.5%
20,O=C1CC(N2CCN(S(=O)(=O)c3ccc([N+](=O)[O-])cc3)CC2)C(=O)N1c1ccccc1F (stereo not drawn),1%
21,CCCC/C=C/C(NC(=O)c1ccc(-c2ccccc2)cc1)c1ccccc1 (stereo not drawn),8.44%
